In PubChem BioAssay AID485344 (National Center for Advancing Translational Sciences (NCATS), 2010):
About 6,900 (2%) of roughly 340,000 compounds were called active. Rule as the data show it: active = inhibition above about 30%; inactive = below that, where a call was filed. The list shows a part of the results, in another mix than the full data. The source gives no active or inactive call for entries shown without one.

Molecular target: D(2) dopamine receptor (Homo sapiens) (UniProt P14416)
Assay: HTS Assay for Allosteric Antagonists of the Human D2 Dopamine Receptor: Primary Screen for Antagonists; also: 0% is about no effect
Details: HEK293 TREx D2 cells, calcium flux, dopamine EC80; at 10 µM; stronger effect = higher value
Excerpt: NIH Chemical Genomics Center [NCGC] NIH Molecular Libraries Probe Centers Network [MLPCN] MLPCN Grant: NS064831-01 Assay Submitter (PI): David Sibley Dopamine receptors (DARs) are involved in the etiology and/or therapy of a number of neuropsychiatric and endocrine disorders. For instance, all receptor-based antiparkinsonian drugs work via stimulating the D2 DAR subtype whereas all FDA-approved antipsychotic agents are antagonists of this receptor. […] There are three different types of allosteric modulators that we are seeking, two of which will stimulate or augment receptor signaling, allosteric agonists and potentiators, while the third, allosteric antagonists, will attenuate receptor signaling. The present primary screening assay measures compound antagonism after an EC80 addition of dopamine by tracking calcium flux in a […], inducible Hek293 Trex D2 cell line.
Freshly passaged cells are plated in 1536 well black, clear bottom plates at a density of 4000 cells/well in 3 ul of complete media containing 1x tetracycline inducer. After an overnight incubation at 30 C in 5% CO2, cells are loaded with 2 ul of the no wash Calcium Assay Kit (ABD Bioquest) and incubated at room temperature for 30 to 90 minutes. Agonist read: A 10 cycle (1 second/cycle) baseline measurement is taken and then the FDSS online 1536 pintool delivers 23 nl of compound library (as well as dopamine controls) to the plate. The plate is measured for kinetically at 1 cycle/sec for 180 seconds. Following the 180 second read, 1 ul of an EC80 (negative modulation assay) is delivered by an onboard pipette head. Measurements are taken kinetically for an additional 180 seconds.

Sequence of UniProt P14416 (P14416 whole entry, looked up): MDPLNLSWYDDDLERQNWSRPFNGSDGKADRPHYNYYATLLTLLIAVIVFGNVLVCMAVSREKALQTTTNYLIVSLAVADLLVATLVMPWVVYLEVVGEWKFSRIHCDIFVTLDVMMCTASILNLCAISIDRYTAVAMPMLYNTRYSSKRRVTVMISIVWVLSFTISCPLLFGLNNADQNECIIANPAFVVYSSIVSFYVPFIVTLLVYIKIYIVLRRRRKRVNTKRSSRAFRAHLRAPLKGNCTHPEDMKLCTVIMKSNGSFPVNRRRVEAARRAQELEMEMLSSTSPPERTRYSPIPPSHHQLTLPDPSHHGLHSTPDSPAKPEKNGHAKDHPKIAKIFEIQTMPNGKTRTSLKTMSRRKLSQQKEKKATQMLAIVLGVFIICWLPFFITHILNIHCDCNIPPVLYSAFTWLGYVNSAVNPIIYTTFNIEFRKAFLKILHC

SMILES	inhibition
O=C(CSc1nc(=O)n(Cc2ccncc2)c2c1CCC2)Nc1cccc(F)c1	0.108%
Cc1ccc(NC(=O)C2CCN(S(=O)(=O)c3ccc4c(c3)NC(=O)C(C)S4)CC2)cc1Cl (configuration not stated)	active: 72.5%
Cc1cc(C)cc(-n2c(SCC(=O)Nc3ccc4c(c3)OCO4)nc3c([nH]c4ccccc43)c2=O)c1	-3.63%
Cc1cccc(N(C)S(=O)(=O)c2ccc3c(c2)NC(=O)CC(=O)N3)c1	7.25%
COc1ccc(CNC(=O)C(=O)NCC(c2cccnc2)N2CCN(c3ccccc3)CC2)cc1 (configuration not stated)	1.83%
CCCN1CCCc2cc(CN(CCCN3CCOCC3)C(=O)Nc3ccc(Cl)c(Cl)c3)ccc21	8.84%
COc1cccc(Cn2c(=O)n(Cc3ccccc3)c(=O)c3c2c2cc(OC)ccc2n3C)c1	-10%
Cc1cc2[nH]c(=O)c(=O)[nH]c2cc1S(=O)(=O)N1CCN(c2ccccc2F)CC1	-9.35%
COc1ccccc1CN1C[C@@H]2C[C@@H](c3ccc(C)c(C)c3)N3CCC[C@@]23C1=O	active: 34.9%
COc1ccc2sc(N(Cc3cccnc3)C(=O)CCc3ccccc3)nc2c1	2.88%
CCOC(=O)C1(CCOc2ccccc2)CCN(Cc2ccc(C)o2)CC1	active: 42.2%
CC1=C(c2ccc(Cl)cc2)S(=O)(=O)N=C1N1CCN(c2cc(C)ccc2C)CC1	3.09%
CCOc1ccc(NS(=O)(=O)c2ccc(OCC(=O)N3CCCC3)cc2)cc1	active: 50.6%
CN1CCN(c2oc(-c3ccccc3)nc2S(=O)(=O)c2ccc(Br)cc2)CC1	active: 30.7%
Cc1ccc(S(=O)(=O)N(C)c2ccc(C(=O)NCc3ccccn3)cc2)cc1	active: 56.7%
Cc1ccc(Nc2ncnc3c2nc2n3CCCC2)cc1F	7.44%
Clc1ccc(CSc2nncn3c2cc2occc23)cc1	2.11%
COc1ccccc1CNC(=O)C1CCN(S(=O)(=O)Cc2ccccc2)CC1	11.3%
Cc1nc2nc[nH]n2c(=O)c1NS(=O)(=O)c1ccc(Br)cc1	10.1%
CCOC(=O)c1c(S(=O)(=O)N2CCC(C(=O)NCc3ccccc3Cl)CC2)c(C)n(C)c1C	-8.2%
O=S(=O)(c1ccccc1F)N1CCN(CCOc2ccccc2)CC1	active: 39%
COc1cccc(CNC(=O)c2ccc3c(c2)sc2nc(-c4cccc(OC)c4)cn23)c1	11.1%
COc1ccc(N2CC(NC(=O)C(c3ccccc3)c3ccccc3)CC2=O)cc1 (configuration not stated)	1.59%

SMILES	inhibition
COCCn1ccc2c(OCC(=O)Nc3cccc(C(F)(F)F)c3)cccc2c1=O	-26.6%
CCOC(=O)c1ccc(NC(=O)Cn2nc(C)c3nn(-c4ccc(Cl)cc4)c(C)c3c2=O)cc1	-13.8%
Cc1cccc(N2CCN(C(=O)c3cnn(-c4ccccc4)c3C3CCN(C(=O)OC(C)(C)C)CC3)CC2)c1C	0.91%
CCOC(=O)c1c(NC(=O)C(C)Sc2cn(CCNC(=O)c3ccc(OCC)cc3)c3ccccc23)sc2c1CCC2 (configuration not stated)	-18.5%
Cc1ccccc1OCC(=O)Nc1ccc2nc(SCC(=O)N3CCCC3)sc2c1	3.63%
O=C1Cc2cc(S(=O)(=O)Nc3ccc(OC(F)(F)F)cc3)cc3c2N1CCC3	-17.4%
COc1ccc(S(=O)(=O)c2nnn(-c3cccc(Cl)c3)c2N)cc1	2.27%
CS(=O)(=O)N1CCC(C(=O)Nc2ccc(OCc3ccccc3)cc2)CC1	active: 45.5%
CCOC(=O)c1cc(-c2ccc(OC)c(S(=O)(=O)N3CCN(c4ccccc4)CC3)c2)on1	-2.84%
COc1ccc2c(c1)c1c(c(=O)n(-c3cccc(C)c3)c(=O)n1CC(=O)NCCC1=CCCCC1)n2C	1.31%
COc1ccccc1Nc1nc(-c2ccccc2)c(CC(=O)O)s1	13%
CCOC(=O)c1c(-c2ccc(OC)c(OC)c2)csc1NC(=O)c1ccccc1F	-6.16%
Cc1ccc2nc3c(cc(C(=O)NC4CCCC4)c(=N)n3C(C)C)c(=O)n2c1	3.89%
O=C(C1CC1)N1CCc2cc(Br)cc(S(=O)(=O)NCCCN3CCCC3)c21	active: 38.8%
COc1ccc2[nH]cc(CCNC(=O)Nc3cc(C)cc(C)c3)c2c1	7.44%
CCC(Nc1ccc(-c2nc(-c3cccnc3)no2)cc1[N+](=O)[O-])c1ccccc1 (configuration not stated)	14.3%
O=c1c2cccnc2n(Cc2cccc(F)c2)c(=O)n1Cc1ccc(F)cc1	17.7%
O=C(NC1CC(=O)N(c2ccc(Cl)cc2)C1)c1cc2ccccc2o1 (configuration not stated)	3.02%
CC(=O)Nc1ccc(Nc2ccc3cc(S(=O)(=O)N4CCCCC4)ccc3n2)cc1	0.664%
Nc1cc(=O)nc(SCC(=O)Nc2ccccc2)n1CCc1ccccc1	14%
CCN(c1ccccc1)S(=O)(=O)c1ccc(NC(=O)c2nc(S(C)(=O)=O)ncc2Cl)cc1	22.9%
CCOCCOC(=O)c1ccc2c(c1)N(Cc1ccccc1C#N)C(=O)c1ccccc1S2(=O)=O	-5.11%
CCc1ccc(C(=O)COC(=O)C(NC(=O)C2CCC(C)CC2)C(C)C)cc1 (configuration not stated)	-16.5%

SMILES	inhibition
CCOc1ccc(CCNC(=O)CCCn2c(=O)c3cccn3c3cccnc32)cc1	11.9%
COc1ccc(-c2cc3ccc(O)c(CN4CCN(C)CC4)c3oc2=O)cc1OC	6.92%
COc1cc(CNC(=O)c2cnc3c(-c4cccc(C)c4)c(C)nn3c2C)cc(OC)c1OC	-1.63%
CCCn1c2ccccc2c2cnn(CC(=O)Nc3cc(OC)c(OC)c(OC)c3)c(=O)c21	4.08%
CCc1nc2ccc(C(=O)N3CCN(c4cccc(Cl)c4)CC3)cc2nc1CC	11.6%
CC(C)c1ccc(Nc2sc(C(=O)c3ccccc3)c(N)c2S(=O)(=O)c2ccccc2)cc1	7.01%
CC(C)CC(=O)Nc1nnc(S(=O)(=O)N2c3ccccc3CC2C)s1 (configuration not stated)	5.69%
CCOc1ccc(C(=O)NCCc2csc(-c3cccc(C)c3)n2)cc1	-3.41%
O=C(CCC(=O)N1CCOc2ccc(Cl)cc21)NCCCN1CCN(Cc2ccccc2)CC1	active: 40.7%
Cc1ccc(N2CCN(C(=O)Cn3ncc4c([nH]c5ccc(C)cc54)c3=O)CC2)c(C)c1	1.19%
COc1ccc(-n2c(=O)c3c4c(sc3n(Cc3ccccc3C)c2=O)CCCC4)c(OC)c1	-3.51%
CCc1cccc(NC(=O)C(Cc2ccccc2)NS(=O)(=O)c2cccs2)c1 (configuration not stated)	-0.313%
CC(=O)c1ccc(Nc2cc(C)nc3nc(Cc4ccccc4)nn23)cc1	-12.9%
COc1ccc(N(CC(=O)NCCc2ccccc2)S(=O)(=O)c2c(C)nn(C)c2C)cc1	-5.83%
CCc1ccc(C2=NN(CCC(=O)NCCc3ccccc3)C(=O)CC2)cc1	5.97%
CCc1c(C)c2cc3c(c(C)c2oc1=O)OCN(CCc1ccc(OC)c(OC)c1)C3	24.1%
COc1ccc(CCNC(=O)CCN2C(=O)C3CC=CCC3C2=O)cc1OC (configuration not stated)	active: 64.1%
COc1cc2c(cc1OC)C(CC(=O)O)N(C(=O)Nc1cc(OC)c(OC)c(OC)c1)CC2 (configuration not stated)	-24.3%
Cc1ccc(C)c(N2CCN(CCCNC(=O)c3ccc4nc(N5CCC(C)CC5)sc4c3)CC2)c1	3.9%
CC(=O)c1ccc(NC(=O)CSc2nc(-c3ccccc3C)nc3c2c(=O)n(C)c(=O)n3C)cc1	-7.46%
CCOC(=O)c1c(C)oc2nc(C)nc(N(C)Cc3ccccc3)c12	0.667%
O=C(CSc1ncc(-c2ccc(Cl)cc2)[nH]1)Nc1ccccc1F	-3.91%
Cc1ccc(S(=O)(=O)N2CCCC2C(=O)Nc2ccc(Br)cc2)cc1 (configuration not stated)	21.5%

SMILES	inhibition
CCOc1ccc(C(=O)c2cn(Cc3cccc(OC)c3)c3cc4c(cc3c2=O)OCO4)cc1	-0.439%
CCn1c(SCC(=O)N/N=C/c2ccc(C)o2)nnc1-c1ccccc1	active: 56.8%
COc1ccc(C(CNC(=O)COc2ccc(Cl)c(C)c2)N2CCCCC2)cc1 (configuration not stated)	active: 36.5%
O=C(C1CCCN(S(=O)(=O)c2cccc3nonc23)C1)N1CCN(c2cccc(C(F)(F)F)c2)CC1 (configuration not stated)	-14.7%
Cc1ccc(S(=O)(=O)N(C)C)cc1NC(=S)NC12CC3CC(CC(C3)C1)C2	active: 77.8%
CCOC(=O)CNC(=O)Nc1cc(C(=O)NCc2ccc(C(C)C)cc2)ccc1N1CCCC1	10.6%
Cc1cc(OCC(=O)Nc2sc3c(c2C#N)CCC(C)C3)ccc1Cl (configuration not stated)	-3.11%
Cc1ccc2[nH]c(=O)c3cc(C(=O)NCc4cccc(Cl)c4)sc3c2c1	3.51%
Cc1cc(C)c(/C=C/c2onc(C)c2S(=O)(=O)N2CCC(C(=O)Nc3cccc(C)c3C)CC2)c(C)c1	-13.1%
COc1ccccc1-c1noc(CSc2nnc(-c3ccccc3)n2-c2ccc(C)c(C)c2)n1	-14.8%
CCOC(=O)c1ccc(N2CCN(c3ccc(F)cc3)CC2)c(NC(=O)Nc2ccc(CC)cc2)c1	8.5%
CCOc1ccc(C(=O)Nc2ccc(NC(=O)c3ccccc3)cc2)cc1Br	2.25%
Cc1ccc(S(=O)(=O)N2CCCc3cc(NS(=O)(=O)c4ccccc4)ccc32)cc1	4.62%
Cc1ccc(OCC(=O)N(Cc2nc(-c3ccccc3)no2)C(C)C)cc1C	5.14%
COC(=O)c1ccc([C@H]2Nc3ccc(S(=O)(=O)Nc4ccc(F)cc4)cc3[C@H]3C=CC[C@H]32)cc1	2.78%
CN(C)c1ncc(C(=O)NCc2ccccc2Cl)cn1	-20.4%
COc1ccccc1C(=O)Nc1ccnn1C1CCN(CCCc2ccccc2)CC1	active: 32.8%
COc1ccc(CNc2nc(NCc3ccc(OC)cc3)n(C(=O)c3ccccc3[N+](=O)[O-])n2)cc1	active: 31.2%
COc1ccc(S(=O)(=O)NCc2ccc3c(c2)CCN3C(C)=O)cc1OC	8.22%
Cc1ccc(NC(=O)CCS(=O)(=O)c2ccc3nc(C)sc3c2)c(C)c1	0.599%
CCOc1ccc(CN2C(=O)c3ccccc3Sc3ccc(C(=O)NCCCN4CCOCC4)cc32)cc1	-14.4%
CC(C)c1ccc(NC(=O)c2cc(S(=O)(=O)N3CCc4ccccc4C3)ccc2F)cc1	6.1%
Cc1cccc(NC(=O)CCn2nc(C)c3c(C)n(-c4ccccc4)nc3c2=O)c1C	15.8%
